This note sets out measurements from PubChem BioAssay AID1508623 (National Center for Advancing Translational Sciences (NCATS), 2021).

Screen size: about 48,000 compounds; about 450 (0.94%) were called active. Not shown: some 19% with an inconclusive outcome. Calls follow the shape of the dose curve; as a rule, active = well fitted inhibition curve with a large enough effect; inconclusive = small, poorly fitted or top-dose-only effect; inactive = no such curve, though single readings can be large or run the other way. The list shows a part of the results.

This test can be described thus: Primary qHTS for Identification of Small Molecule Inhibitors of Huntingtin Promoter Activity. Also: nearly all actives have a fitted effect of over 50% in size. The following applies: HEK293 HTT promoter firefly luciferase reporter (activity 0% = vehicle and -100% = no light), 24 h; series mostly up to 57.5 µM; activity change, negative = inhibition: at the top concentration. Put shortly: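 Firefly luciferase signal from promoter-reporter HEK293 cells was scaled between vehicle (0%) and zero RLU (-100%). Compounds were tested at final concentrations of up to 57.5 uM over 24 h at 37 degrees C. PTC124 at 50 uM final served as control inhibitor.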
In general terms: qHTS replaces the single test concentration by a dilution series.
With `COc1ccccc1C(=O)NC1=NC(c2ccc(Br)cc2)CC(=O)N1` (configuration not stated), the “activity change, negative = inhibition” value was inactive: 47.7%.

Consider `OCCCc1nc2n(n1)C(c1cccc(Cl)c1)C=C(c1ccccc1)N2` (configuration not stated), for which the “activity change, negative = inhibition” value is inactive: -25%.

For `COc1ccccc1-c1nc(CNC(=O)Nc2ccccc2)c(C)o1`, the “activity change, negative = inhibition” value was inactive: 0%.

`O=[N+]([O-])c1cc(-c2nc(-c3ccccc3)no2)ccc1NC1CCCC1`: the “activity change, negative = inhibition” value was inactive: -27%.

As to `COc1ccc(CN2C(=O)N(c3ccc(C)cc3)C(=O)C2CC(=O)Nc2ccccc2)cc1OC` (configuration not stated), the “activity change, negative = inhibition” value is inactive: -0.823%.

As to `CCCCCCNC(=O)n1cc(F)c(=O)[nH]c1=O`, the activity change, negative = inhibition result is “inactive”.

`O=C1CCCc2[nH]c(=O)c(-c3nc(-c4cccc([N+](=O)[O-])c4)cs3)cc21`: the “activity change, negative = inhibition” value is inactive: -6.84%.

For `COc1ccc(-c2nc(CNC(=O)NC3CCCCC3)c(C)o2)c(OC)c1`, the “activity change, negative = inhibition” value is inactive: -6.33%.

`CCOC(=O)c1cc2c(=O)n3ccccc3nc2n(Cc2ccco2)c1=NC(=O)c1ccc(F)cc1`: the “activity change, negative = inhibition” value was inactive: -14.2%.

Consider `O=C(CCCn1c(=O)[nH]c2ccccc2c1=O)N1CCN(c2ccccc2)CC1`, for which the “activity change, negative = inhibition” value is inactive: -8.13%.

Take `O=S(=O)(NCCc1cn2ccsc2n1)c1ccc(Cl)cc1`: the “activity change, negative = inhibition” value was inactive: -6.27%.

As for `O=C(CN1C(=O)COc2ccc(S(=O)(=O)N3CCOCC3)cc21)N1CCN(c2ccc(Cl)cc2)CC1`, the “activity change, negative = inhibition” value was inactive: -6.95%.

As to `CCCCCCc1cc2cc(-c3cn4c(n3)sc3cc(OC)ccc34)c(=O)oc2cc1O`, the “activity change, negative = inhibition” value was inactive: -14.9%.

Consider `COc1cc(OC)c(NC(=O)Cn2cnc3c(nc4n3CCCCC4)c2=O)cc1Cl`, for which the activity change, negative = inhibition was inactive: -11.6% [at 11.5 µM].

As for `CCN(CCCNC(=O)Cn1ncc2c3ccccc3n(C)c2c1=O)c1cccc(C)c1`, the “activity change, negative = inhibition” value was inactive: 18.4%.

Take `Cc1cc(OCC(=O)Nc2nc3c(s2)CCCC3)cc(C)c1Cl`: the “activity change, negative = inhibition” value was inactive: 1.39%.

Turning to `CCOC(=O)c1ccccc1NC(=O)COc1cc(=O)n(CC)c2ccccc12`, the “activity change, negative = inhibition” value was inactive: -15.6%.

For the compound `COc1ccc(Cl)cc1NC(=O)c1sc2nc3c(cc2c1N)CN(C)CC3`, the “activity change, negative = inhibition” value is inactive: -7.09%.

As to `Cc1cccc(C)c1NC(=O)Cn1c(=O)cc(C)c2c(C)nn(-c3cccc(Cl)c3C)c21`, the “activity change, negative = inhibition” value is inactive: -11.7%.

As to `CCOc1ccccc1NC(=O)Cn1c(=O)n(Cc2ccccc2)c(=O)c2c3c(sc21)CN(C(C)=O)CC3`, the “activity change, negative = inhibition” value was inactive: -13.3%.

For the compound `O=C(CCC1N=C2c3ccccc3N=C(SCc3ccc(Cl)cc3)N2C1=O)NC1CCCCC1` (configuration not stated), the “activity change, negative = inhibition” value is inactive: -16.6%.

Take `Cc1ccc(-n2ncc3c(N4CCCCC4)ncnc32)cc1`: the “activity change, negative = inhibition” value is inactive: -91.8%.

As to `O=C(CN1CCN(C2CCCCC2)C(=O)C1=O)Nc1ccc(Cl)cc1`, the “activity change, negative = inhibition” value was inactive: -14.4%.

In the case of `CCC(=O)Nc1ccccc1C(=O)OCc1cc(=O)n2cc(C)sc2n1`, the “activity change, negative = inhibition” value is inactive: -20.6%.

On to `COc1ccc(OC)c(NC(=O)Cn2c(CCC(=O)O)ccc2-c2ccccc2)c1`, for which the “activity change, negative = inhibition” value was inactive: -12.6%.

`CC(C)CCN1C(=O)c2ccccc2CC1(C)C(=O)NC1CCCCC1` (configuration not stated): the “activity change, negative = inhibition” value is inactive: -21.7%.

Consider `CC1CC(=O)N(CC(=O)Nc2ccc(OC(F)(F)F)cc2)c2ccccc2S1` (configuration not stated), for which the “activity change, negative = inhibition” value was inactive: -20.6%.

With `Cc1cccc(N(C)C(=O)c2cc3c(=O)oc4ccc(C)cc4c3s2)c1`, the “activity change, negative = inhibition” value was inactive: -8.05%.

Regarding `Cc1ccc(CCNC(=O)c2cc3cc(S(=O)(=O)N4CCCCC4)ccc3n2C)cc1`, the “activity change, negative = inhibition” value is inactive: -20.6%.

In the case of `CCOc1ccc(-n2nc3ccc(NC(=O)c4ccc(C)cc4C)cc3n2)cc1`, the “activity change, negative = inhibition” value was inactive: -2.31%.

As to `CCN1CCOC(=O)C1CC(=O)Nc1cc(Cl)ccc1C` (configuration not stated), the “activity change, negative = inhibition” value was inactive: -0.817%.

Regarding `CCN1CCN(CCCNC(=O)c2cnn(-c3ccc(OC)cc3)c2C2CCN(C(=O)OC(C)(C)C)CC2)CC1`, the “activity change, negative = inhibition” value was inactive: 0.273%.

As to `COc1ccc(Cl)cc1C(=O)NCCc1ccc(S(=O)(=O)NC(=O)NC2CCCCC2)cc1`, the “activity change, negative = inhibition” value is inactive: -12.3%.

Take `COC(=O)c1ccc(C(=O)OC)c(NC(=O)c2cnn3c(C(F)F)cc(-c4ccc(C)cc4)nc23)c1`: the “activity change, negative = inhibition” value was inactive: -11%.

Take `CCOC(=O)c1ccc(Nc2nc3ccccc3n3c(C)nnc23)cc1`: the “activity change, negative = inhibition” value was inactive: 3.44%.

Consider `CCOCCc1nn2c(=O)cc(COC(=O)c3ccccc3NC(=O)CC(C)C)nc2s1`, for which the “activity change, negative = inhibition” value was inactive: -8.43%.

For the compound `COc1ccc(N(C)S(=O)(=O)c2ccc3c(c2)n(C)c(=O)c(=O)n3C)cc1`, the “activity change, negative = inhibition” value is inactive: 5.91%.

As for `O=C(Cn1c(-c2cccs2)cc2cc(F)ccc21)N1CCCCC1`, the “activity change, negative = inhibition” value is inactive: -18.9%.

Turning to `COC(=O)c1scc(-c2ccc(C)cc2)c1S(=O)(=O)N1CCN(c2ccccc2F)CC1`, the “activity change, negative = inhibition” value was inactive: -30.7%.

On to `COc1ccc(CNC(=O)Cn2ncc3c(=O)oc4ccc(C)cc4c32)c(OC)c1`, for which the “activity change, negative = inhibition” value is inactive: 2.53%.

For `Cc1cc(=O)n2[nH]c(NC(=O)c3cccc(Cl)c3)nc2n1`, the “activity change, negative = inhibition” value is inactive: -0.646%.

Turning to `CC1=Nc2cc(C(=O)N3CCCCC3)ccc2Sc2ccc(C)cc21`, the “activity change, negative = inhibition” value was inactive: -11.7%.

In the case of `Cc1c(C(=O)NCc2ccc(OC(C)C)cc2)sc2ncnc(N(C)C3CCCCC3)c12`, the “activity change, negative = inhibition” value is inactive: -27.1%.

In the case of `COc1ccccc1CCNC(=O)CCCn1c(=O)c2cccn2c2cccnc21`, the “activity change, negative = inhibition” value is inactive: -9.76%.

For the compound `COc1ccc(-c2nc(CN3CCC(C(=O)NCc4ccc(F)cc4)CC3)c(C)o2)cc1OC`, the “activity change, negative = inhibition” value was inactive: -0.764%.

For `CCCC(=O)Nc1nnc(SCc2cc(=O)n3cccc(C)c3n2)s1`, the “activity change, negative = inhibition” value is inactive: -7.59%.

`CCCN(CCC)CCNC(=O)c1nn(C)c2c1CS(=O)(=O)c1ccccc1-2`: the “activity change, negative = inhibition” value is inactive: 6.29%.

Take `CCOC(=O)c1c(NC(=O)/C=C/c2ccc(Cl)cc2)sc2c1CCC(C)C2` (configuration not stated): the “activity change, negative = inhibition” value is inactive: -6.1%.

With `COc1ccc(CCC(=O)NC2CC(=O)N(c3ccccc3)C2)cc1` (configuration not stated), the “activity change, negative = inhibition” value is inactive: -13.9%.

With `Cc1ccccc1C(=O)n1nc(-c2ccco2)nc1NCc1cccs1`, the “activity change, negative = inhibition” value was inactive: -4.76%.

For the compound `Cc1ccc2[nH]c(CSc3nnc(NC(=O)COc4ccc(F)cc4)s3)cc(=O)c2c1`, the “activity change, negative = inhibition” value is inactive: -6.18%.

On to `COc1cc(Cl)c(C)cc1NC(=O)c1nn(C)c2c1CSc1ccccc1-2`, for which the “activity change, negative = inhibition” value was inactive: -7.59%.

For the compound `O=C(CCCCn1c(=O)c2ccccc2n(Cc2cccc(Cl)c2)c1=O)NCc1ccc2c(c1)OCO2`, the “activity change, negative = inhibition” value was inactive: -7.22%.

On to `COc1ccc(CNC(=O)c2cc(-c3ccc(Cl)cc3)n[nH]2)cc1`, for which the “activity change, negative = inhibition” value was inactive: 2.69%.

`O=C(NCc1nc(-c2ccccc2)no1)c1ccco1`: the “activity change, negative = inhibition” value is inactive: 11.9%.

As for `CCn1cc(C(=O)NCCc2ccccc2)c(=O)c2cc(S(=O)(=O)N3CCc4ccccc4C3)ccc21`, the “activity change, negative = inhibition” value was inactive: -11.3%.

`CCCN(CCC)CCCNC(=O)c1cn(C)c2ccc(S(=O)(=O)N3CCOCC3)cc2c1=O`: the “activity change, negative = inhibition” value is inactive: -1.02%.

As for `CCCn1c2ccccc2c2cnn(CC(=O)NCCCN(Cc3ccccc3)C(C)C)c(=O)c21`, the “activity change, negative = inhibition” value was inactive: -8.8%.

For `COc1ccc(-c2cc(C)no2)cc1S(=O)(=O)N1CCOc2ccc(Cl)cc21`, the “activity change, negative = inhibition” value is inactive: -23.8%.

As for `COc1ccc(Nc2cc(C(=O)NCCCN(C)C3CCCCC3)c3ccccc3n2)c(OC)c1`, the “activity change, negative = inhibition” value is inactive: -24.6%.

In the case of `COC(=O)c1ccc2c(=O)n(CCCCCC(=O)NCc3ccc(OC)cc3)c(=O)[nH]c2c1`, the “activity change, negative = inhibition” value was inactive: -17.1%.

Consider `CC(C)c1ccc(NC(=O)CN2C(=O)COc3ccc(S(=O)(=O)N4CCOCC4)cc32)cc1`, for which the “activity change, negative = inhibition” value was inactive: -1.18%.
